According to PubChem BioAssay AID686979 (National Center for Advancing Translational Sciences (NCATS), 2013):
In all, about 420,000 compounds went through this assay and about 50,000 (12%) were called active. Inconclusive means that the source gave no clear call. Such entries were picked first, then a sample of the others. Calls follow the shape of the dose curve; as a rule, active = well fitted inhibition curve with a large enough effect; inconclusive = small, poorly fitted or top-dose-only effect; inactive = flat fitted curve, though single readings scatter. Potencies of inconclusive entries are left out as doubtful fits.

Assay: qHTS for Inhibitors of human tyrosyl-DNA phosphodiesterase 1 (TDP1): qHTS in cells in presence of CPT; also: nearly all actives have a fitted effect of over 55% in size
Conditions: chicken DT40 Tdp1-/-;hTDP1 cells + 20 nM CPT, ATP luminescence, 48 h; activity change, negative = growth inhibition: at 46.2 µM (top of the series) unless noted
In short: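 Chicken DT40 Tdp1-/- cells complemented with human TDP1, 400 cells/well, exposed to compounds plus 20 nM camptothecin for at least 48 h at 37 C; viability read as ATP content by CellTiter-Glo luminescence.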
% is scaled to controls: 0 for no effect and ±100 for the full control effect; potency is read from the fitted curve at half-maximal effect; tags tell the direction and shape of the fitted curve.

Structure (SMILES) | Potency | activity change, negative = growth inhibition
Cc1ccc2c(C)c(C(=O)Nc3ccc(S(N)(=O)=O)cc3)oc2c1C | inconclusive [inhibitor, partial curve, poor fit] | –
CC(C)Sc1cc(Cl)nc(NC(=O)Nc2ccccc2)n1 | inconclusive [inhibitor, single point] | –
Clc1ccccc1/C=C/c1ccnc2ccccc12 | inconclusive [inhibitor, single point] | –
COc1cccc(CNC(=O)CCC2CCCN(C/C=C/c3ccccc3OC)C2)c1 (stereo not drawn) | inconclusive [inhibitor, single point] | –
CC(C)(C)c1ccc(-c2nc3cc(NC(=O)c4cc5ccccc5o4)ccc3o2)cc1 | inconclusive [inhibitor, single point] | –
O=C(CCc1nnc(CCc2ccccc2)o1)N1CCCCC1CCn1cccn1 (stereo not drawn) | inconclusive [inhibitor, single point] | –
C=CCNC(=O)c1ccc(-c2nc(-c3ccc(Cl)cc3Cl)cs2)cc1 | inconclusive [inhibitor, single point] | –
CC[C@]12c3[nH]c4ccc(Cl)cc4c3CCN1C(=O)[C@@H](CC(=O)NCc1cccc(C(F)(F)F)c1)C[C@@H]2C(=O)N1CCN(C(=O)C2CC2)CC1 | inconclusive [inhibitor, single point] | –
COc1ccc(-c2nc3c4ccccc4ccn3c2CN2CCCCC2)cc1OC | inconclusive [inhibitor, single point] | –
COc1ccc(NC(=O)NC2COc3ccccc3C2)c(OC)c1 (stereo not drawn) | – | inactive: -11%
CCOc1ccccc1C(=O)N1CCN(c2cccc(Cl)c2)CC1 | active: 0.0366 µM | –
CC1(C)CC(NC(=O)COc2cc3oc(=O)c4c(c3cc2Cl)CCC4)CC(C)(C)N1 | inconclusive [inhibitor, single point] | –
O=C(COc1ccc2ccc(=O)oc2c1)N1CCN(c2ccc(F)cc2)CC1 | inconclusive [inhibitor, single point] | –
O=C1/C(=C\c2ccc(O)cc2)CCC1CNc1ccc(Cl)cc1 (stereo not drawn) | active: 4.61 µM | –
Cc1cccc(C)c1NC(=O)C1C(c2ccc3c(c2)OCO3)=Nc2ccccc2N1C(=O)c1ccccc1 (stereo not drawn) | active: 5.17 µM | –
CCOc1ccc(CCN2C(=S)N([C@@H](CC(C)C)CN3CCC[C@@H]3CN3C(=S)NC[C@@H]3CC(C)C)C[C@@H]2CC(C)C)cc1 | inconclusive [inhibitor, single point] | –
COc1ccc([C@H]2CC(=O)C[C@@H](CCn3cc(CC4CCCC4)nn3)O2)cc1 | inconclusive [inhibitor, single point] | –
CS(=O)(=O)N1CCN(C(=O)NC23CC4CC(CC(C4)C2)C3)CC1 | – | inactive: -2.2%
Cc1cc(C)c(S(=O)(=O)Nc2ccc[nH]c2=O)c(C)c1 | inconclusive [inhibitor, single point] | –
O=C(CN1C2=NCCN2c2ccccc21)N1CCOCC1 | – | inactive: -4.44%
O=C(CSC1=Nc2ccccc2C2CC=NN12)Nc1ccc(F)c(F)c1F (stereo not drawn) | inconclusive [inhibitor, single point] | –
CC(C)Oc1cccc(C(=O)C2CCCN(C(=O)CCc3cnn(C)c3)C2)c1 (stereo not drawn) | active: 16.4 µM | –
O=C1Cc2cc(S(=O)(=O)Nc3ccc(N4CCOCC4)cc3)ccc2N1 | – | inactive: 2.96%

Structure (SMILES) | Potency | activity change, negative = growth inhibition
C=CCn1c(SCC(=O)NCC)nnc1-c1cc2c(s1)CCC(CC)C2 (stereo not drawn) | active: 23.1 µM | –
Clc1nccnc1N/N=C/c1ccc(Br)cc1 | inconclusive [inhibitor, single point] | –
C#CCOCCOCCOCCNc1nc(N2CCN(C(=O)CCCCCCCCCCNC(=O)[C@@H]([C@H](C)O)n3cc(C)nn3)CC2)nc(N2CCN(C(=O)CCCCCCCCCCNC(=O)[C@@H]([C@H](C)O)n3cc(C)nn3)CC2)n1 | inconclusive [inhibitor, single point] | –
COc1ccc(NC(=O)c2cc(-c3ccccc3)nc3c2cnn3C(C)C)cc1 | inconclusive [inhibitor, single point] | –
Cc1cc(SCC(=O)N2c3ccccc3NC(=O)CC2C)nc2ccccc12 (stereo not drawn) | inconclusive [inhibitor, partial curve] | –
COc1ccc(Cl)cc1C(=O)NNC(=S)NC(=O)/C=C/c1ccco1 | inconclusive [inhibitor, single point] | –
COc1ccc2cc(C3(C)NC(=O)N(CC(=O)NCC(F)(F)F)C3=O)ccc2c1 (stereo not drawn) | – | inactive: 2.15%
COc1ccc(S(=O)(=O)N2CCCC(C(=O)NCc3ccco3)C2)cc1OC (stereo not drawn) | – | inactive: -19.2%
COc1ccccc1C(=O)Nc1ccc(-c2nnn(CC(=O)NCc3ccco3)n2)cc1 | – | inactive: -10.8%
COc1ccc(-n2c(-c3cccc(C)c3[N+](=O)[O-])n[nH]c2=S)cc1 | – | inactive: -6.1%
O=C(Cn1ccn(-c2cccc(Cl)c2)c(=O)c1=O)NCCc1ccccc1 | – | inactive: 0.731%
COC(=O)c1ccc(CN2CCC(CO)(Cc3ccc(OC)cc3)CC2)cc1 | – | inactive: 5.36%
CC(C)c1ccc(NC(=O)C2CCN(S(=O)(=O)c3cccc4nsnc34)CC2)cc1 | inconclusive [inhibitor, partial curve] | –
COc1ccccc1CN(C)CC(=O)c1c(C)[nH]c2ccccc12 | active: 17.8 µM | –
COc1ccc(-c2ccc3c(=O)cc(-c4ccsc4)oc3c2)cn1 | active: 18.4 µM | –
NC(=O)c1ccsc1NC(=O)COC(=O)c1ccc(Cl)c(N)c1 | inconclusive [inhibitor, partial curve] | –
COc1cccc(-c2cnc3c(NC(C)=O)cc(-c4cc(F)ccc4OC)cn23)c1 | inconclusive [inhibitor, single point] | –
CCCCC(O)(CCCC)C(=O)NN(C(=O)c1cccnc1Cl)c1ccccc1 | – | inactive: 1.71%
CCOc1ccccc1NC(=O)c1c(NC(=O)CCC(=O)O)sc2c1CCCCC2 | – | inactive: -25.3%
CS(=O)(=O)N1CCC2(CCCN(c3ccncc3)C2)CC1 | – | inactive: 5.44%
Cc1ccccc1C(=O)NCC(=O)c1ccccc1 | – | inactive: 1.61%
CC(C)(Oc1ccc(Cl)cc1)C(=O)N/N=C/c1cn[nH]c1-c1ccccc1 | inconclusive [inhibitor, partial curve] | –
O=C(CN1CCOCC1)Nc1ccc([N+](=O)[O-])cc1Br | inconclusive [inhibitor, single point] | –

Structure (SMILES) | Potency | activity change, negative = growth inhibition
CN(CC(=O)Nc1cccc(Cl)c1)S(=O)(=O)c1ccc2[nH]c3c(c2c1)CCCC3 | inconclusive [inhibitor, single point] | –
CCCc1cc(C(=O)Nc2cccc3ccccc23)n(C)n1 | inconclusive [inhibitor, partial curve, poor fit] | –
COc1cccc(-c2nn3c(-c4ccccn4)nnc3s2)c1 | – | inconclusive: -33% [inhibitor]
Cc1cc(C)c2c(c1)-c1cc(C)nn1C(c1ccc3c(c1)OCO3)N2 (stereo not drawn) | inconclusive [inhibitor, single point] | –
COc1ccc(N2CCN(C(=O)CCc3c(C)nc4c(-c5ccccc5)c(C)nn4c3C)CC2)cc1 | active: 23.1 µM | –
CC(C)CN1C(=O)c2ccc(C(=O)Nc3ccc(OCC(=O)O)cc3)cc2C1=O | – | inactive: -5.68%
O=S(=O)(NCC(c1ccco1)S(=O)(=O)c1ccccc1)c1ccccc1 (stereo not drawn) | inconclusive [inhibitor, single point] | –
Cc1ccc(N(C)S(=O)(=O)c2cccc(C(=O)NC3CC(C)(C)NC(C)(C)C3)c2)cc1 | inconclusive [inhibitor, single point] | –
COc1ccccc1CNC(=O)CCc1c(C)c2ccc(OC)c(C)c2oc1=O | inconclusive [inhibitor, partial curve, poor fit] | –
COc1ccc2nc(C)cc(SCC(NC(C)=O)C(=O)OC(C)C)c2c1 (stereo not drawn) | inconclusive [inhibitor, single point] | –
O=C(c1cnc(Cl)c(Cl)c1)N1CCN(S(=O)(=O)c2ccc(F)cc2)CC1 | – | inconclusive: -7.32% [inhibitor]
CCOc1ccc(S(=O)(=O)N(CC(=O)Nc2cccnc2)c2ccccc2)cc1 | inconclusive [inhibitor, single point] | –
Cc1c(C(=O)N(C)Cc2nc3ccccc3c(=O)[nH]2)oc2ccccc12 | inconclusive [inhibitor, single point] | –
Cc1cc(N2CCN(C)CC2)nc2ccc(NC(=O)Nc3ccccc3Br)cc12 | active: 20.6 µM | –
CCOc1ccc(C2OC34CCCCC3C(C#N)(C#N)C2(C#N)C(=N)O4)cc1OC (stereo not drawn) | active: 13 µM | –
COc1cc(/C=C(\C#N)C(=O)NCC2CCCO2)ccc1OCCC(C)C (stereo not drawn) | active: 20.6 µM | –
Cc1ccc2cc(CCNS(=O)(=O)c3ccc(Br)cc3)c(=O)[nH]c2c1C | inconclusive [inhibitor, single point] | –
CC(C)CCN1C(=O)c2ccc(C(=O)OCn3nnc4ccccc4c3=O)cc2C1=O | – | inactive: -6.9%
O=S(=O)(c1ccc(Br)s1)N1CCN(c2ccccn2)CC1 | inconclusive [inhibitor, single point] | –
Clc1cccc2c1Sc1ccccc1CC2N1CCNCC1 (stereo not drawn) | active: 18.4 µM | –
CCOC(=O)[C@]12CCCC=C1N(Cc1ccco1)C(=O)[C@H](CC(=O)NCc1cccc3ccccc13)C2 | inconclusive [inhibitor, single point] | –
CC1CN(C(=O)c2cc(F)c(F)cc2Cl)CC(C)O1 (stereo not drawn) | inconclusive [inhibitor, single point] | –
